Test results from the supplement of paper PMC10126150.
Sequences with one replicate were seen in a single cluster, so their values are uncertain.

Tested on: ATP
Assay: switch fluorescence ratio, 500 uM ATP over buffer (Cy3 cluster intensity, sum of 5 cycles each) (fold (ratio)); higher = stronger signal-on switching upon ATP binding; sequences stand for … in TCGTCGGCAGCGTCAGATGTGTATAAGAGACAGTTTTTTTTTTTTTTTTTTTTTTTTT…TC
Settings: aptamer strand: ATP DNA aptamer (quencher-CACCTGGGGGAGTATTGCGGAGGAAGG + anchor), 100 nM annealed; ATP concentration: 500 uM; one replicate
Summary of the method: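 Between each of five buffer/ATP cycles, the flow-cell was stripped with NaOH and re-annealed. Each cycle imaged Cy3-labelled switching-strand clusters, annealed to 100 nM quencher-labelled ATP aptamer on a modified Illumina MiSeq flow-cell, first in selection buffer and then after 15 min with 500 uM ATP at 22 °C. The fluorescence ratio is summed target-cycle over summed buffer-cycle Cy3 intensity per cluster, averaged per switch-domain sequence, with clusters outside 100-1000 RFU excluded.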
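Further: ATP exposure 15 min at 22 °C before imaging.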

## TGTGGAGACC
  switch fluorescence ratio: 1

## CACTACGCTT
  switch fluorescence ratio: 2.44

## AAGGGCCCGG
  switch fluorescence ratio: 0.999

## TTAATCTCAT
  switch fluorescence ratio: 0.949

## AGTTTTATAT
  switch fluorescence ratio: 1.01

## TGGCTGCTCC
  switch fluorescence ratio: 1.1

## CCGGTCACGG
  switch fluorescence ratio: 0.988

## GCAAACTGGG
  switch fluorescence ratio: 1.07

## CAGCGTCGGA
  switch fluorescence ratio: 0.999

## CCTTAATTGT
  switch fluorescence ratio: 1.02

## CATTACCTAA
  switch fluorescence ratio: 1.04

## TATGCCTAAG
  switch fluorescence ratio: 0.984

## TCTCGCACG
  switch fluorescence ratio: 1.08

## ACTATGATTC
  switch fluorescence ratio: 1.06

## AACTTGGCCT
  switch fluorescence ratio: 1.04

## TTTATGCCTA
  switch fluorescence ratio: 1.07

## CGGGTCAGAA
  switch fluorescence ratio: 1.01

## ACTTTGGGGC
  switch fluorescence ratio: 1.01

## TGCCGTTCAG
  switch fluorescence ratio: 1.05

## ATTTTAGGTA
  switch fluorescence ratio: 0.956

## AGATTGGTCC
  switch fluorescence ratio: 0.887

## CGCAAAAAAT
  switch fluorescence ratio: 1.08

## TAAGGGTCCG
  switch fluorescence ratio: 0.871

## TGCAAAAGTG
  switch fluorescence ratio: 0.97

## TTGATGATTT
  switch fluorescence ratio: 0.968

## TCCGTTGTCA
  switch fluorescence ratio: 1.02

## TTTCTTCT
  switch fluorescence ratio: 0.975

## TCGACAATAT
  switch fluorescence ratio: 3.34

## ACGGGCTGAG
  switch fluorescence ratio: 0.999

## TTAAGGCTT
  switch fluorescence ratio: 0.962

## ATGTGTTAAT
  switch fluorescence ratio: 1.04

## CATTGATTAC
  switch fluorescence ratio: 1.02

## ACCTCGTTCT
  switch fluorescence ratio: 1.02

## ACTCTGGACC
  switch fluorescence ratio: 1.12

## AGCAATGCTG
  switch fluorescence ratio: 1.63

## GAACCTGGGG
  switch fluorescence ratio: 1.06

## CCCCGGTCGT
  switch fluorescence ratio: 1.07

## GTGACTTCGC
  switch fluorescence ratio: 1.29

## GCCTAACGTG
  switch fluorescence ratio: 1.01

## ATTTGGATTA
  switch fluorescence ratio: 0.971

## GCCAGGTGCT
  switch fluorescence ratio: 0.993

## CGGATAGCCA
  switch fluorescence ratio: 1

## ATTCGGGAGG
  switch fluorescence ratio: 0.994

## CCACAAAGTG
  switch fluorescence ratio: 1.05

## GCCGATGTGT
  switch fluorescence ratio: 1

## TTGTTCGAGA
  switch fluorescence ratio: 0.968

## AGTCTGGCTC
  switch fluorescence ratio: 1.04

## AAATGGGGG
  switch fluorescence ratio: 0.965

## AAGTCTGCG
  switch fluorescence ratio: 1.02

## GAGTGCCTAA
  switch fluorescence ratio: 0.993

## TTAGACCTTT
  switch fluorescence ratio: 1.06

## CTGGTTGATA
  switch fluorescence ratio: 1.05

## CAAATAATCA
  switch fluorescence ratio: 1.02

## GCCACTTTCG
  switch fluorescence ratio: 0.995

## GGGGTCGGAT
  switch fluorescence ratio: 0.99

## GGCTAATCTA
  switch fluorescence ratio: 0.967

## ACCTTGGGTG
  switch fluorescence ratio: 1.18

## TTAGGTAAAG
  switch fluorescence ratio: 0.958

## TCGACTACAG
  switch fluorescence ratio: 0.96

## GCACACCGCA
  switch fluorescence ratio: 1.16

## CATGAGTGAG
  switch fluorescence ratio: 0.949

## ATGATGAACG
  switch fluorescence ratio: 1.02

## AATCGGCGAG
  switch fluorescence ratio: 1

## TCGTTTTCCG
  switch fluorescence ratio: 0.956

## GGCGCAAGGG
  switch fluorescence ratio: 1.28

## AAAAGTCGGT
  switch fluorescence ratio: 0.997

## CCGATGTTAA
  switch fluorescence ratio: 1.11

## TAAAAGCAGT
  switch fluorescence ratio: 0.976

## TCAGTTGCTT
  switch fluorescence ratio: 0.987

## TTGCGGGGCG
  switch fluorescence ratio: 1.11

## TTCCCTGGGC
  switch fluorescence ratio: 1.04

## ACCTGCTATG
  switch fluorescence ratio: 1.03

## GCAACCCATG
  switch fluorescence ratio: 1.08

## TTTGGGGAG
  switch fluorescence ratio: 1.02

## GGAATAGTTG
  switch fluorescence ratio: 1.06

## ACCGGATCTG
  switch fluorescence ratio: 1.06

## TGGTTATAGG
  switch fluorescence ratio: 0.982

## GCCAAAAAAC
  switch fluorescence ratio: 1.08

## CGGTATGATG
  switch fluorescence ratio: 0.948

## TATTATTGTA
  switch fluorescence ratio: 1.02

## CGTTAGCCTA
  switch fluorescence ratio: 0.999

## ATACCGTCCG
  switch fluorescence ratio: 1.08

## ATCTCATAAG
  switch fluorescence ratio: 1.04

## GAGCGGCTCA
  switch fluorescence ratio: 1.02

## TTCCCGTCAT
  switch fluorescence ratio: 1.06

## CGCGGGCACA
  switch fluorescence ratio: 1.1

## AATCCTTTCT
  switch fluorescence ratio: 1.27

## TTATTAGGTT
  switch fluorescence ratio: 1

## CCGCCCCTTA
  switch fluorescence ratio: 1.42

## AATCCCACGA
  switch fluorescence ratio: 1.04

## CTTCTAGTAA
  switch fluorescence ratio: 1.1

## CATGGAAGCT
  switch fluorescence ratio: 1.08

## ATATCATGCG
  switch fluorescence ratio: 0.986

## CCGATCAGTT
  switch fluorescence ratio: 1.11

## GTAGTAACTT
  switch fluorescence ratio: 1.05

## CGGTGCTAGT
  switch fluorescence ratio: 1.02

## TTCTTGAGTC
  switch fluorescence ratio: 0.999

## TCCGCGCGAT
  switch fluorescence ratio: 2.03

## TTACGTTATA
  switch fluorescence ratio: 1.21

## TATCGTGTG
  switch fluorescence ratio: 0.961

## ATACCCTGTA
  switch fluorescence ratio: 1.02

## TCTTGGTGTA
  switch fluorescence ratio: 1.16

## CACATTTATT
  switch fluorescence ratio: 1.03

## CTAGTAATCG
  switch fluorescence ratio: 1.02

## GAGGGCAAAT
  switch fluorescence ratio: 1.04

## TGCGAGGAAA
  switch fluorescence ratio: 1.06

## AGCTTATCGT
  switch fluorescence ratio: 0.952

## ATGAAGAGG
  switch fluorescence ratio: 0.97

## CAGTCCTCCC
  switch fluorescence ratio: 1.49

## GGGCGGCTA
  switch fluorescence ratio: 0.747

## TCGCATTGTG
  switch fluorescence ratio: 1.01

## GCGGGGAATG
  switch fluorescence ratio: 0.986

## ACTTGGTCTG
  switch fluorescence ratio: 1.01

## ACCTTTCTCG
  switch fluorescence ratio: 3.06

## ACTGTAGGAT
  switch fluorescence ratio: 1.08

## AGGAGAGAAA
  switch fluorescence ratio: 1

## CGGAGCTATT
  switch fluorescence ratio: 3.56

## TTCTGGTGGT
  switch fluorescence ratio: 0.972

## TACAGTACTT
  switch fluorescence ratio: 1.42

## AATAAAAGTG
  switch fluorescence ratio: 1.09

## AGGTGATCGG
  switch fluorescence ratio: 0.988

## TGAAGCTTTT
  switch fluorescence ratio: 1.04

## TTCATGCATA
  switch fluorescence ratio: 1.05

## GGGAACGCTG
  switch fluorescence ratio: 0.967

## CGCTTTTGTC
  switch fluorescence ratio: 1.05

## ACAATTACGC
  switch fluorescence ratio: 1.12

## GGAGTGATGA
  switch fluorescence ratio: 1.11

## GTGTAAGAGT
  switch fluorescence ratio: 0.997

## AATCATTTCT
  switch fluorescence ratio: 1.06

## GGACACCAGC
  switch fluorescence ratio: 1.1

## GATAGTGGGT
  switch fluorescence ratio: 0.967

## CTTAAGCTC
  switch fluorescence ratio: 1

## TGCCCTTCTT
  switch fluorescence ratio: 0.949

## CTAGAATATA
  switch fluorescence ratio: 1

## GGTCTGGATT
  switch fluorescence ratio: 0.953

## CCAGGTACGA
  switch fluorescence ratio: 1.15

## TTGCAAGGG
  switch fluorescence ratio: 1.01

## TGGGTTGCAA
  switch fluorescence ratio: 0.973

## GCTACCTAAG
  switch fluorescence ratio: 1.07

## TGGGAAATTC
  switch fluorescence ratio: 1.02

## AGGGCTAAGC
  switch fluorescence ratio: 0.961

## GACGTTGTAA
  switch fluorescence ratio: 1.04

## CGTTTCGAA
  switch fluorescence ratio: 1.02

## TATGCAGATC
  switch fluorescence ratio: 1.02

## CGCCTAAGCC
  switch fluorescence ratio: 0.994

## CAGAGGCTAT
  switch fluorescence ratio: 1.33

## AGGCTCGAAT
  switch fluorescence ratio: 1.01

## GGCAATGGCT
  switch fluorescence ratio: 1.05

## TAAAGGAGTC
  switch fluorescence ratio: 1.03

## CAATCATCCC
  switch fluorescence ratio: 1.02

## GAACCGGAAG
  switch fluorescence ratio: 1.08

## GCCGATGCCC
  switch fluorescence ratio: 1.09

## AGCCGAGTTT
  switch fluorescence ratio: 0.998

## AGATTGACCG
  switch fluorescence ratio: 1.02

## TGTGCTTGGA
  switch fluorescence ratio: 0.997

## ATGCATTCGG
  switch fluorescence ratio: 0.995

## GTTTTGATGT
  switch fluorescence ratio: 0.995
